From the supplement of paper PMC7826260 come the findings set out here.

The other results are listed elsewhere or left out. One pool of 16,384 single-stranded DNAs met each Rep nickase domain in vitro (3 µM enzyme, 1 h, 37 °C); shown is the middle of each 90-letter strand. The score is log2 (uncut reads / reads without enzyme); more negative means more cut, near 0 not cut, and no call is made. Reads are scaled to the total; uncut strands gain when others are lost, and binding without cutting may add a little.

One experiment deals with T1, Rep nickase domain of chickpea chlorotic dwarf virus.
T1 sequence (residues 1-124 of Rep, tag left off): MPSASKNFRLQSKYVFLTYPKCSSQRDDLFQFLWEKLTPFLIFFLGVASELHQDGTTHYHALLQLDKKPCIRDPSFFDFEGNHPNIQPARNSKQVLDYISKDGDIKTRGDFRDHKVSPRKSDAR
Kind of experiment: uncleaved DNA left, log2 of reads against the no-enzyme library (log2 ratio); higher = less cleavage (more negative = more Rep cleavage of the k-mer); sequences stand for … in CTCGTCCG…ACCGGAGA
On the procedure:
(§1)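 A pool of 90-nt single-stranded DNAs with seven random bases just before the constant AC of the nick site (name = the seven bases) was cut by 3 µM recombinant His6-SUMO-tagged Rep nickase domain (300 nM DNA, 50 mM HEPES pH 8.0, 50 mM NaCl, 1 mM MnCl2, 1 h, 37 °C, three replicates). Uncut DNA was amplified and sequenced.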
Regarding ACATCTG, the “uncleaved DNA left (log2)” value is -0.498.

As for GGGAAGA, the “uncleaved DNA left (log2)” value turned out to be 2.1.

Turning to CACATAG, the “uncleaved DNA left (log2)” value is 0.129.

As for TCGATGG, the “uncleaved DNA left (log2)” value was determined as 0.452.

For GTGACCT, the “uncleaved DNA left (log2)” value turned out to be 1.14.

As to ATATCAC, the “uncleaved DNA left (log2)” value was -0.43.

With CCCTCTG, the “uncleaved DNA left (log2)” value is -0.55.

For GTAATAA, the “uncleaved DNA left (log2)” value was determined as 0.79.

As to CAAAAGA, the “uncleaved DNA left (log2)” value is -0.682.

Regarding GGCTGCT, the “uncleaved DNA left (log2)” value is 0.327.

TGCAATG: the “uncleaved DNA left (log2)” value came to 0.255.

GCATACC: the “uncleaved DNA left (log2)” value is -0.232.

In the case of TACACCT, the “uncleaved DNA left (log2)” value is -2.79.

CGTGACA: the “uncleaved DNA left (log2)” value was determined as 0.752.

In the case of ACCTGTA, the “uncleaved DNA left (log2)” value is -0.782.

In the case of AGTACTC, the “uncleaved DNA left (log2)” value was 0.225.

Take CATGCCG: the “uncleaved DNA left (log2)” value is 0.189.

GGTGCCC: the “uncleaved DNA left (log2)” value stood at 1.08.

With TTTTAGA, the “uncleaved DNA left (log2)” value was -0.0906.

Consider TCAGCCC, for which the “uncleaved DNA left (log2)” value is -0.347.

TTAATCT: the “uncleaved DNA left (log2)” value was -1.7.

On to ATCCGAG, for which the “uncleaved DNA left (log2)” value stood at 1.69.

GGTAGGG: the “uncleaved DNA left (log2)” value amounted to 0.533.

For the sequence CCCGGGT, the “uncleaved DNA left (log2)” value was found to be 0.686.

As to TTTGACC, the “uncleaved DNA left (log2)” value amounted to 0.254.

In the case of GGGTCAG, the “uncleaved DNA left (log2)” value stood at 2.03.

Regarding CCAAATT, the “uncleaved DNA left (log2)” value is -2.66.

On to AGATGCC, for which the “uncleaved DNA left (log2)” value is 0.296.

With CCAACGA, the “uncleaved DNA left (log2)” value was -0.929.

With AATCTGG, the “uncleaved DNA left (log2)” value is 0.452.

In the case of TCCACAT, the “uncleaved DNA left (log2)” value is 0.0871.

Consider CCTGCCT, for which the “uncleaved DNA left (log2)” value was -1.32.

Turning to GCGCACT, the “uncleaved DNA left (log2)” value turned out to be 0.417.

For the sequence GGGAGGT, the “uncleaved DNA left (log2)” value is 1.96.

On to TTCGTTG, for which the “uncleaved DNA left (log2)” value was -0.678.

Consider CATAAAT, for which the “uncleaved DNA left (log2)” value was -1.56.

For ATCCAAT, the “uncleaved DNA left (log2)” value was -0.405.

In the case of TCACCAG, the “uncleaved DNA left (log2)” value was -0.922.

With GGGTCGC, the “uncleaved DNA left (log2)” value worked out at 1.87.

In the case of CACAAGA, the “uncleaved DNA left (log2)” value was -0.373.

The next experiment deals with T2, Rep nickase domain of faba bean necrotic yellows virus.
T2 sequence (residues 1-98 of Rep, tag left off): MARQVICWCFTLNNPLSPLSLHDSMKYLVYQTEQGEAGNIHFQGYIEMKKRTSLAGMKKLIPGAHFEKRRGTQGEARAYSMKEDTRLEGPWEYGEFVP
The description is as above. On the procedure: as §1
Turning to ACATCTG, the “uncleaved DNA left (log2)” value was -0.123.

Regarding GGGAAGA, the “uncleaved DNA left (log2)” value is 0.0575.

Turning to CACATAG, the “uncleaved DNA left (log2)” value worked out at 0.00935.

For the sequence TCGATGG, the “uncleaved DNA left (log2)” value was 0.0195.

Consider GTGACCT, for which the “uncleaved DNA left (log2)” value was -0.0944.

On to ATATCAC, for which the “uncleaved DNA left (log2)” value turned out to be 0.0993.

For the sequence CCCTCTG, the “uncleaved DNA left (log2)” value was -0.242.

On to GTAATAA, for which the “uncleaved DNA left (log2)” value is -0.0375.

Consider CAAAAGA, for which the “uncleaved DNA left (log2)” value is 0.125.

Regarding GGCTGCT, the “uncleaved DNA left (log2)” value is -0.00949.

For the sequence TGCAATG, the “uncleaved DNA left (log2)” value was -0.00103.

Regarding GCATACC, the “uncleaved DNA left (log2)” value is -0.0228.

Regarding TACACCT, the “uncleaved DNA left (log2)” value was 0.115.

As for CGTGACA, the “uncleaved DNA left (log2)” value is -0.155.

As for ACCTGTA, the “uncleaved DNA left (log2)” value was -0.103.

For AGTACTC, the “uncleaved DNA left (log2)” value was -0.0918.

In the case of CATGCCG, the “uncleaved DNA left (log2)” value was determined as 0.0351.

Regarding GGTGCCC, the “uncleaved DNA left (log2)” value is -0.068.

On to TTTTAGA, for which the “uncleaved DNA left (log2)” value amounted to 0.191.

As to TCAGCCC, the “uncleaved DNA left (log2)” value was -0.0471.

Take TTAATCT: the “uncleaved DNA left (log2)” value came to 0.104.

Regarding ATCCGAG, the “uncleaved DNA left (log2)” value came to 0.0238.

Take GGTAGGG: the “uncleaved DNA left (log2)” value was -0.0772.

Regarding CCCGGGT, the “uncleaved DNA left (log2)” value is -0.102.

Turning to TTTGACC, the “uncleaved DNA left (log2)” value amounted to 0.138.

For the sequence GGGTCAG, the “uncleaved DNA left (log2)” value is -0.11.

In the case of CCAAATT, the “uncleaved DNA left (log2)” value was -0.157.

Regarding AGATGCC, the “uncleaved DNA left (log2)” value is 0.0397.

CCAACGA: the “uncleaved DNA left (log2)” value was found to be 0.0824.

In the case of AATCTGG, the “uncleaved DNA left (log2)” value is 0.257.

Turning to TCCACAT, the “uncleaved DNA left (log2)” value is 0.107.

For CCTGCCT, the “uncleaved DNA left (log2)” value is 0.123.

For the sequence GCGCACT, the “uncleaved DNA left (log2)” value came to 0.078.

Take GGGAGGT: the “uncleaved DNA left (log2)” value is -0.104.

As for TTCGTTG, the “uncleaved DNA left (log2)” value came to 0.0193.

In the case of CATAAAT, the “uncleaved DNA left (log2)” value is -0.0222.

In the case of ATCCAAT, the “uncleaved DNA left (log2)” value was -0.0728.

In the case of TCACCAG, the “uncleaved DNA left (log2)” value is -0.0484.

As to GGGTCGC, the “uncleaved DNA left (log2)” value is -0.0789.

For the sequence CACAAGA, the “uncleaved DNA left (log2)” value was -0.0367.

The test system of a further experiment is T3, Rep nickase domain of maize striate mosaic virus.
T3 sequence (residues 1-117 of Rep, tag left off): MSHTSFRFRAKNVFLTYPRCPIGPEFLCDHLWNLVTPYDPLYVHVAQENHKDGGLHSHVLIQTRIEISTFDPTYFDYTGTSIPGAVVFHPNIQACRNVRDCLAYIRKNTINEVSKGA
The experiment is described as above. On the procedure:
as §1
As for ACATCTG, the “uncleaved DNA left (log2)” value is -0.882.

With GGGAAGA, the “uncleaved DNA left (log2)” value was 2.25.

In the case of CACATAG, the “uncleaved DNA left (log2)” value is -0.697.

Turning to TCGATGG, the “uncleaved DNA left (log2)” value turned out to be 0.349.

On to GTGACCT, for which the “uncleaved DNA left (log2)” value came to 1.62.

Turning to ATATCAC, the “uncleaved DNA left (log2)” value is -0.794.

Consider CCCTCTG, for which the “uncleaved DNA left (log2)” value is -0.595.

As for GTAATAA, the “uncleaved DNA left (log2)” value came to 1.66.

For CAAAAGA, the “uncleaved DNA left (log2)” value was -1.17.

Regarding GGCTGCT, the “uncleaved DNA left (log2)” value was determined as 0.47.

Turning to TGCAATG, the “uncleaved DNA left (log2)” value amounted to 0.642.

As for GCATACC, the “uncleaved DNA left (log2)” value stood at 0.0188.

TACACCT: the “uncleaved DNA left (log2)” value was -0.273.

As to CGTGACA, the “uncleaved DNA left (log2)” value was determined as 1.32.

Regarding ACCTGTA, the “uncleaved DNA left (log2)” value is -0.728.

In the case of AGTACTC, the “uncleaved DNA left (log2)” value worked out at 0.48.

Consider CATGCCG, for which the “uncleaved DNA left (log2)” value is -0.751.

For the sequence GGTGCCC, the “uncleaved DNA left (log2)” value was 1.58.

For the sequence TTTTAGA, the “uncleaved DNA left (log2)” value was -0.505.

Turning to TCAGCCC, the “uncleaved DNA left (log2)” value is -0.393.
